Drawing on PubChem BioAssay AID1645887 (National Center for Advancing Translational Sciences (NCATS), 2021), this text covers activation for 89 compounds.

Structures are written as SMILES. Where “and” joins values, the source holds several entries; their conditions need not be identical. Equal entries are not always repeated. The campaign covered roughly 16,000 compounds. About 40 (0.2%) were called active. Roughly 1% stayed inconclusive and do not appear here. Calls come from the whole dose curve; as a rule, active = well fitted activation curve with a large enough effect; inconclusive = small, poorly fitted or top-dose-only effect, or another doubt; inactive = no such curve, though single readings can be large or run the other way. The list shows a part of the results.
% is set by controls: 0 for no effect and ±100 for the full control effect.

The test deals with Rap guanine nucleotide exchange factor 4 (Homo sapiens) (UniProt Q8WZA2). In words: Validation qHTS for agonist of cAMP-regulated guanine nucleotide exchange factor 4 (EPAC2).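 Note: exchange makes BODIPY-GDP fluorescence drop when released from Rap1B; series mostly up to about 150 µM.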 The following applies: EPAC2 Rap1B BODIPY-GDP exchange, fluorescence; activation: active compounds read high. A digest of the protocol: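 Fluorescent exchange assay: 100 nM EPAC2 with 250 nM RAP1B-BODIPY-GDP and 50 uM GDP; compound added, 5 min at room temperature, then read (ex 480/em 540 nm) every 5 min for 30 min. Normalized to 6.5 mM cAMP agonist control.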
Chain of UniProt Q8WZA2 (Q8WZA2 whole entry, looked up): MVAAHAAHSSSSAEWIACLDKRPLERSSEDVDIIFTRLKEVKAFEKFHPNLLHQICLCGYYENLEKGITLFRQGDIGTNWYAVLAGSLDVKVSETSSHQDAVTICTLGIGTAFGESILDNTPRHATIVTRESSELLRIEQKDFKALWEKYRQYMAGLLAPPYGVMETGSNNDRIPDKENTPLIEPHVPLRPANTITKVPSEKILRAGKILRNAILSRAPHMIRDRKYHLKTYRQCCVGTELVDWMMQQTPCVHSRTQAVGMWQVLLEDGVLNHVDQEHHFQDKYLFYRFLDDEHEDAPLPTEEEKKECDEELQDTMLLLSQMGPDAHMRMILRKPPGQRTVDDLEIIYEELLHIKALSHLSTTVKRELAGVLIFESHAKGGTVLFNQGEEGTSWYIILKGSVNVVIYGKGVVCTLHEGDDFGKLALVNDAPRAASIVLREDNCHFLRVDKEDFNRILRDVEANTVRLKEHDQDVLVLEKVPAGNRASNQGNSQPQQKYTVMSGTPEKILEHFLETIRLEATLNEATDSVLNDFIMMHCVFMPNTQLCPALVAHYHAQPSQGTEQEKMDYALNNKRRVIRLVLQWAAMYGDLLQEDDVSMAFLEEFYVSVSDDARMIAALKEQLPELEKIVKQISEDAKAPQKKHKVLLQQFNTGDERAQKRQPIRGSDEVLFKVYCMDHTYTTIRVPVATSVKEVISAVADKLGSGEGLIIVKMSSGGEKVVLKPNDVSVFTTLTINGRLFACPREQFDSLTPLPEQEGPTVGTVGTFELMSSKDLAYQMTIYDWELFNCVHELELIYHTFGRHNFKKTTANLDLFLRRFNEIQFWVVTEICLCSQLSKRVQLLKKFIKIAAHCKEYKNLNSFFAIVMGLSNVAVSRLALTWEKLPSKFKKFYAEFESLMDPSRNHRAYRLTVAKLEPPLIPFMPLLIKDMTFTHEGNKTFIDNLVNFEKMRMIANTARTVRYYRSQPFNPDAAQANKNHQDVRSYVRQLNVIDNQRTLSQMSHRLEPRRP
For the compound `C[N+]1(C)CCCC(OC(=O)C(O)(c2ccccc2)c2ccccc2)C1` (centres undefined), the activation is inactive: -9.1% and inactive: -1.8%.

For the compound `Cc1cnc(-n2ncc(C(=O)N(C)CC3COCCO3)c2C2CC2)nc1-c1cccs1` (centres undefined), the activation was inactive: -5.84%.

`CN1CCN2c3ccccc3Cc3ccccc3[C@@H]2C1`: the activation is inactive: -8.6%.

With `CCCCCCCCCCCCC/C=C/[C@@H](O)[C@H](CO)NC(=O)CCCCCCCCCCCCCCC`, the activation is inactive: -5.54%.

Turning to `CC1CC[C@]2(CO)CC[C@]3(C)C(=CCC4[C@@]5(C)CCC(O)C(C)(C)C5CC[C@@]43C)C2C1C` (some centres undefined), the activation was inactive: 6.91%.

For `CCC1CN(CC(=O)NCc2n[nH]c3c2CCCCC3)Cc2cc(OC)ccc2O1` (centres undefined), the activation is inactive: -6.84%.

As to `O=C(CCCN1CCC(O)(c2ccc(Br)cc2)CC1)c1ccc(F)cc1`, the activation was inactive: 3.56%.

`CNCC[C@H](Oc1cccc2ccccc12)c1cccs1`: the activation is inactive: -6.77%.

As to `CC(=O)ON(C(C)=O)S(=O)(=O)c1ccc(Cl)cc1`, the activation is inactive: -17.8%.

Regarding `COc1cccc(Nc2ncc3nc(CCc4ccccc4)c(=O)n(Cc4cccs4)c3n2)c1`, the activation is inactive: 2.04%.

Regarding `CN(C)Cc1ccccc1-c1cc(N(C)Cc2ccco2)ncn1`, the activation was inactive: -4.14%.

As for `COc1cccc(-c2ccnc(-n3ncc(C(=O)NCC(C)(C)CN(C)C)c3C)n2)c1`, the activation is inactive: -9.64%.

`CC(Oc1ccccc1)C(=O)NCC1Cc2cc(F)cc(-c3ccccn3)c2O1` (centres undefined): the activation was inactive: 6.61%.

`c1ccc(-c2ccc(N3CC4(CCNCC4)C3)cc2)cc1`: the activation is inactive: 9.91%.

As to `OCCCNc1ccccc1`, the activation is inactive: -9.45%.

With `CC(=O)c1ccc2c(c1)N(CCCN1CCC(CCO)CC1)c1ccccc1S2`, the activation was inactive: -16.7%.

As for `COc1cccc(CN(CC(=O)NCc2ccccc2)S(=O)(=O)CCl)c1`, the activation was inactive: -20.8%.

In the case of `O=C(NCC1(N2CCOCC2)CCCCC1)c1cnn(-c2nccc(-c3cccs3)n2)c1C1CC1`, the activation is inactive: -2.82%.

Turning to `Cc1[nH]c2c(F)cccc2c1CC(=O)NCCN1Cc2ccccc2OC(C)C1` (centres undefined), the activation is inactive: -2.07%.

As for `CO[C@@]1(NC(=O)Cc2cccs2)C(=O)N2C(C(=O)O)=C(COC(N)=O)CS[C@@H]21`, the activation was inactive: 5.02% and inactive: -7.08%.

Take `O=c1c(-c2ccc(F)cc2)nc2cnc(Oc3ccccc3)nc2n1C[C@H]1CCCO1`: the activation is inactive: 8.71%.

In the case of `CS(=O)(=O)N1CCC2(CCN(Cc3ccncc3)CC2)CC1`, the activation was inactive: -10.9%.

Take `NC1(C(=O)O)CCC1`: the activation is inactive: -11.1%.

Turning to `CC(Cc1ccccc1)(NC(=O)CN)c1ccccc1` (centres undefined), the activation was inactive: -41.7%.

With `O=c1cnc2cnc(Oc3ccccc3)nc2n1Cc1ccc(F)cc1`, the activation is inactive: 2.4%.

Consider `C[C@@H](CSc1ccccc1)CN1CC[C@H](NC(=O)OCc2ccccc2)CCC1=O`, for which the activation is inactive: -28%.

For the compound `COCCNc1ncnc2ccc(-c3cccnc3)cc12`, the activation was inactive: -19.7%.

Regarding `COc1cccc(-c2nc3cc4c(cc3cc2CN(C(=O)c2cccs2)C2CC2)CCC4)c1OC`, the activation was inactive: -23.5%.

As to `COc1ccc(Cc2cnc(N)nc2N)cc1OC`, the activation was inactive: -9.49%.

With `COc1ccccc1CNc1ncncc1-c1ccccc1CN(C)C`, the activation was inactive: -6.39%.

Consider `COC(=O)C[C@H]1c2cc(F)ccc2S(=O)(=O)N1Cc1ccccc1OC`, for which the activation was inactive: -27.9%.

For the compound `CC(C)C[C@H](CO)N(Cc1ccccc1)S(=O)(=O)N(Cc1ccccc1)[C@@H](CO)CC(C)C`, the activation was inactive: -12.8%.

As for `C[N+]1(CC(=O)c2ccc(Cl)cc2)CCOCC1`, the activation is inactive: -10.8%.

With `O=C(O)CCC/C=C\C[C@@H]1[C@@H](/C=C/[C@@H](O)COc2cccc(C(F)(F)F)c2)[C@H](O)C[C@@H]1O`, the activation is inactive: -4.02%.

For the compound `Clc1ccccc1-c1nc(NCCN2CCOCC2)c2ccccc2n1`, the activation was inactive: 3.1%.

Turning to `Cc1ccccc1-c1cc(NCCN2CCOCC2)ncn1`, the activation was inactive: -22.6%.

For the compound `COc1cccc(OC)c1OCCNCC1COc2ccccc2O1` (centres undefined), the activation is inactive: 1.86% and inactive: 4.97% and inactive: 12.8%.

With `CC(C)C1NC(C(=O)O)Cc2c1[nH]c1ccccc21` (centres undefined), the activation is inactive: 5.89%.

For the compound `CN(C)C(=O)c1ccc(-c2ccc3ncnc(NC4CC4)c3c2)cc1`, the activation was inactive: -6.73%.

In the case of `CC[C@@H]1OC(=O)[C@@H](C)[C@H](O[C@H]2C[C@@](C)(OC)[C@@H](O)[C@H](C)O2)C(C)[C@H](O[C@H]2O[C@@H](C)C[C@@H](N(C)C)[C@@H]2O)[C@@](C)(O)C[C@H](C)C(=O)[C@@H](C)[C@H](O)[C@@]1(C)O` (some centres undefined), the activation is inactive: 7.16%.

For `CCOc1ccc(C(=O)c2ccc(OC)c(O)c2O)cc1`, the activation was inactive: 2.14%.

Consider `CC1C(O)CC2C(C(=O)O)=CO[C@@H](O[C@H]3OC(CO)C(O)C(O)C3O)C21` (some centres undefined), for which the activation was inactive: -11.1%.

Take `O=c1c(CCc2ccccc2)nc2cnc(N3CCOCC3)nc2n1Cc1cccs1`: the activation was inactive: -7.31%.

For `O=C1NCN(c2ccccc2)C12CCN(CCCC(c1ccc(F)cc1)c1ccc(F)cc1)CC2`, the activation was inactive: 22.8% and inactive: 12.3%.

Regarding `CN1CCN(c2ncc3ncc(=O)n(Cc4cccs4)c3n2)CC1`, the activation is inactive: -3.76%.

As to `Cc1nn(-c2ccccc2)c(C)c1CC(=O)NCC1Cc2cc(F)cc(-c3cccnc3)c2O1` (centres undefined), the activation is inactive: -6.59%.

Turning to `N#Cc1cccc(-c2nc(NCCN3CCOCC3)c3ccccc3n2)c1`, the activation is inactive: -16.9%.

Turning to `CC(=O)NC(CCC(=O)O)C(=O)O` (centres undefined), the activation was inactive: -5.72%.

Take `O=c1c(-c2ccccc2)nc2cnc(Nc3ccccc3)nc2n1C[C@H]1CCCO1`: the activation was inactive: 10.6%.

Consider `CCc1cc[n+](CC(=O)c2ccc(F)cc2)cc1C(=O)O`, for which the activation is inactive: -29.4%.

Take `COc1cc(CN2CCC3(CCC(CNC(=O)c4ccco4)O3)CC2)cc(OC)c1` (centres undefined): the activation was inactive: 4.43%.

For the compound `NC(Cc1c[nH]c2ccccc12)C(=O)NCC(=O)O` (centres undefined), the activation was inactive: -1.77%.

`Cc1noc(C)c1-c1nc(N2CCOCC2)c2ccccc2n1`: the activation is inactive: -19%.

As for `O=C(c1cc(C(F)(F)F)cc(C(F)(F)F)c1)N1CCC2(CC1)CN(c1ccccc1)C2`, the activation was inactive: -30%.

As to `CC(=O)CCC(=O)O`, the activation was inactive: 4.7%.

In the case of `CC(CN1c2ccccc2Sc2cccnc21)N(C)C` (centres undefined), the activation is inactive: -7.67%.

Take `Cc1c(C(=O)N2CC3CCC2C3)sc2ncnc(NCCc3ccccn3)c12` (centres undefined): the activation is inactive: -9.05%.

With `O=c1c(-c2cccs2)nc2cnc(N3CCOCC3)nc2n1-c1ccccc1`, the activation is inactive: 17.6%.

Turning to `CC(C)(C)C(=O)OCOC(=O)[C@@H]1N2C(=O)[C@@H](NC(=O)[C@H](N)c3ccccc3)[C@H]2SC1(C)C`, the activation is inactive: -49.1%.

`O=C(OCc1ccccc1)c1ccc(O)cc1`: the activation is inactive: -45%.

Turning to `COc1ccc(-c2cn(Cc3ccc(C)cc3)nn2)cc1`, the activation is inactive: -10.3%.

As for `N#Cc1cccc(-c2nc3cnc(N4CCNCC4)nc3n(C3CC3)c2=O)c1`, the activation was inactive: 19.4%.

`CN(C)CCC(O)(c1ccccc1)c1ccccc1Cl` (centres undefined): the activation was inactive: 6.55%.

With `CCN1CCCC1CNC(=O)c1cnn(-c2nccc(-c3cc4ccccc4o3)n2)c1C1CC1` (centres undefined), the activation was inactive: 5.66%.

With `N=C1N=C(N)c2cc3ccccc3cc21`, the activation is inactive: -8.12%.

Consider `c1ccc(C(c2ccccc2)N2CC[C@@]3(CCCNC3)C2)cc1`, for which the activation was inactive: -7.19%.

For the compound `COCCn1c(=O)c(-c2cccc(C#N)c2)nc2cnc(OC)nc21`, the activation is inactive: -4.11%.

Regarding `Nc1ccc(-c2ccc3ccccc3n2)cc1`, the activation is inactive: -42.8%.

Regarding `Cc1onc(-c2ccc3c(c2)OCO3)c1-c1ccc2[nH]ccc2c1`, the activation was inactive: -19.7%.

With `COc1ccc(-n2c(=O)c(-c3cn(C)c4ccccc34)nc3cncnc32)cc1`, the activation is inactive: -11.7%.

For the compound `O=[N+]([O-])c1ccc2c(c1)S(=O)(=O)C=C2`, the activation is inactive: -15.8%.

Take `C=CC1=C(C(=O)O)N2C(=O)[C@@H](NC(=O)/C(=N/OCC(=O)O)c3csc(N)n3)[C@H]2SC1` (stereo in doubt): the activation is inactive: -0.711%.

As to `Clc1ccccc1-c1ccc2ncnc(NCc3cccnc3)c2c1`, the activation is inactive: -5.6%.

On to `O=C(Nc1nc2ccccc2n1CCN1CCOCC1)c1cccc([N+](=O)[O-])c1`, for which the activation was inactive: -8.72%.

As to `O=C(c1ccco1)N1CCC2(CC1)CCN(c1ccncc1)CC2`, the activation was inactive: -18.3%.

On to `Cc1ccccc1-c1cc(NCc2cccnc2)ncn1`, for which the activation was inactive: -4.72%.

For the compound `CC(C)COC(=O)OCN1C(=O)CN(CCN2CC(=O)N(COC(=O)OCC(C)C)C(=O)C2)CC1=O`, the activation was inactive: -4.64% and inactive: -34.6%.

As to `O=S1(=O)CCOC[C@H](c2ccccc2)N1Cc1ccc(Cl)cc1Cl`, the activation is inactive: 3.29%.

Turning to `CC(=O)SCC[N+](C)(C)C`, the activation is inactive: -15%.

Regarding `NC(=O)Cc1cccc(C(=O)c2ccccc2)c1N`, the activation is inactive: -6.98%.

In the case of `CN(Cc1ccco1)c1ncncc1-c1ccccc1Cl`, the activation was inactive: 0.819%.

`O=C(Nc1ccccc1)O[C@@H]1C[C@H]2CCC(=O)N3CC[C@@H](C1)[C@@H]23`: the activation is inactive: -20.5%.

As to `Cc1cc(C(=O)Nc2cccc(-c3nc(CNC(=O)c4cc5ccccc5[nH]4)c(C)o3)c2)c(C)o1`, the activation was inactive: -0.97%.

For `CCCCC[C@H](O)/C=C/[C@H]1C=CC(=O)[C@@H]1CCCCCCC(=O)O`, the activation is inactive: -3.6%.

Take `CCCCOC(=O)c1ccc(N)cc1`: the activation is inactive: -11.1%.

Consider `NCCCCCCNS(=O)(=O)c1ccc2c(Cl)cccc2c1`, for which the activation was inactive: -0.832%.

For the compound `CN1CCCCCC1C(=O)NCCN1Cc2ccccc2OC(c2ccsc2)C1` (centres undefined), the activation is inactive: -6.04%.

In the case of `O=C(Nc1ccc(C(=O)O)c(O)c1)c1ccccc1`, the activation was inactive: -3.43%.

Take `CN(C)c1c(Cl)cc(/C=C/c2ccnc3ccccc23)cc1Br`: the activation was inactive: -18.9%.
